{
  "source": "PubChem BioAssay AID602332",
  "about": "(National Center for Advancing Translational Sciences (NCATS), 2012)",
  "note": "Values joined by “and” are separate entries in the source; they are usually repeats but may differ in a detail not shown here. Identical values can stand only once. In all, about 420,000 compounds went through this assay and about 75 (0.02%) were called active. The shares of active, inactive and inconclusive entries below differ from those in the screen. Calls follow the shape of the dose curve; as a rule, active = well fitted activation curve with a large enough effect; inconclusive = small, poorly fitted or top-dose-only effect; inactive = no such curve, though single readings can be large or run the other way. Where the call is inconclusive, the potency comes from a doubtful curve fit. Potency is read from the fitted curve at half-maximal effect; tags tell the direction and shape of the fitted curve.",
  "data": [
    {"test": "qHTS for Inducers of the Endoplasmic Reticulum Stress Response (ERSR) in Human Glioma: qHTS; also: nearly all actives have a fitted effect of over 35% in size; as to activation: % of control where 0% means no effect", "details": "U87-MG GRP78 promoter luciferase reporter, 16 h; activation: active compounds read high", "text": "Primary protein unfolding takes place for many diseases, including diabetes and hypoxia, , and triggers a reaction in the cells called ER stress response (ERSR). ). ERSR is designed as a repair mechanism, but ultimately leads to cell death via apoptosis if conditions triggering protein unfolding persist (1). The molecular clue to ERSR activation is the enhancement of the expression of key molecular chaperones, including the glucose regulated protein (GRP) 78. GRP78 is the main sensor for protein folding and the main actuator of the ERSR.\nIn a collaboration between the Southern Research Institute and the NIH Chemical Genomics Center, a cell based screen was developed that reliably uses GRP78 as a sensor to identify small molecules as inducers of ERSR. In resting conditions, GRP78 binds proteins and acts as a natural repressor. Once unfolded proteins are present in the ER, GRP78 releases some of the repressors and binds to the unfolded proteins. The release of the repressors executes the ERSR program. Using a human glioma cell line in a miniaturized, luminescent format, a high-throughput screen was developed to identify actuators of the ERSR.\n(1) Soboloff, J. and S. A. Berger (2002). \"Sustained ER Ca2+ depletion suppresses protein synthesis and induces activation-enhanced cell death in mast cells.\" J Biol Chem 277(16): 13812-20.\nNIH Chemical Genomics Center [NCGC]\nNIH Molecular Libraries Probe Centers Network [MLPCN]\nAssay Submitter (PI): Maurizio Grimaldi, Southern Research Institute\nStable transfected human glioma cell line, U87-MG, are dispensed at density 1000 cells/well into Greiner white solid bottom 1536-well assay plates. Compounds are transferred via Kalypsys pin tool equipped with 1536-pin array (10nl slotted pins, V&P Scientific, San Diego, CA). The assay plates will be incubated for 16 hours and developed by adding appropriate quantities of the Promega Bright Glo reagent. The plates will be incubated at room temperature for 10 minutes prior to being transferred into a ViewLux high-throughput CCD imager (PerkinElmer), wherein end-point measurements of luminescence are acquired.", "values": [
      {"smiles": "CCc1ccc2c(c1)Sc1ccccc1CC2N1CCN(C)CC1", "note": "(centres undefined)", "activation": "inactive: -3.58%"},
      {"smiles": "CCOC(=O)C1=C(Cc2ccc(OC)cc2)C(=O)c2ccccc2C1=O", "Potency": "inconclusive: 20 µM [activator, single point]"},
      {"smiles": "O=P(O)(O)O[C@@H]1[C@H](O)[C@H](O)[C@@H](OP(=O)(O)O)[C@H](OP(=O)(O)O)[C@H]1O", "activation": "inactive: -2.37%"},
      {"smiles": "CCOc1cc(C2c3c(-c4ccc(Br)cc4)n[nH]c3C(=O)N2c2ccc(Cl)cc2)ccc1O", "note": "(centres undefined)", "Potency": "inconclusive: 15.8 µM [activator, full curve, poor fit]"},
      {"smiles": "COc1ccc(CNC(=O)Cc2c(C)c3c(cc(C)c4c(C)c(C)oc43)oc2=O)cc1", "Potency": "inconclusive: 44.7 µM [activator, single point]"},
      {"smiles": "Cc1occc1-c1nnc(SCC(=O)NC(C)(C)C)n1C(C)c1ccccc1", "note": "(centres undefined)", "Potency": "inconclusive: 44.7 µM [activator, partial curve, poor fit]"},
      {"smiles": "Nc1ccccc1C(=O)NCc1ccccc1", "activation": "inactive: -2.15%"},
      {"smiles": "O=C(/C=C/c1ccccc1)CC(O)(c1ccccc1)C(F)(F)F", "note": "(centres undefined)", "Potency": "inconclusive: 28.2 µM [activator, single point]"},
      {"smiles": "CCN(CC)c1ccc(/C=C2\\C(=O)N(c3nnc(C)c(=O)[nH]3)N=C2C)cc1", "Potency": "inconclusive: 22.4 µM [activator, single point]"},
      {"smiles": "C[C@H](NC(=O)c1nc[nH]c1C(=O)N[C@@H](CCCCNC(=O)OC(C)(C)C)C(=O)OC(C)(C)C)C(=O)OCc1ccccc1", "Potency": "inconclusive: 20 µM [activator, single point]"},
      {"smiles": "CS(=O)(=O)c1ccc(C(=O)OCC(=O)N2CCc3ccccc32)cc1[N+](=O)[O-]", "Potency": "inconclusive: 2.24 µM [activator, full curve, poor fit]"},
      {"smiles": "COc1cc(O)c2c(c1)oc(=O)c1c3cc(O)c(O)cc3oc21", "Potency": "inconclusive: 50.1 µM [activator, single point] and inconclusive: 2 µM [activator, full curve, poor fit]"},
      {"smiles": "Cc1ccc(S(=O)(=O)N2[C@@H](c3ccc(C(C)(C)C)cc3)C(C(=O)O)=CC[C@H]2c2cccc(Cl)c2)cc1", "Potency": "inconclusive: 50.1 µM [activator, single point]"},
      {"smiles": "Cc1cccc(CSc2nc3c(c(=O)[nH]2)C(c2cccc(O)c2)CC(=O)N3)c1", "note": "(centres undefined)", "Potency": "inconclusive: 50.1 µM [activator, single point]"},
      {"smiles": "COC(=O)c1c(NC(=O)Cc2cccs2)sc2c1CCC(C)C2", "note": "(centres undefined)", "activation": "inactive: -2.61%"},
      {"smiles": "Cn1cnc([N+](=O)[O-])c1Oc1ccccc1", "Potency": "inconclusive: 44.7 µM [activator, partial curve, poor fit]"},
      {"smiles": "COc1cccc(C2=CC(c3cccc(OC)c3OC)n3nnnc3N2)c1", "note": "(centres undefined)", "Potency": "inconclusive: 39.8 µM [activator, partial curve]"},
      {"smiles": "Cc1ccc(-c2ccc(CCC(=O)O)o2)cc1", "activation": "inactive: -3.57%"},
      {"smiles": "COc1ccc(N2CC(O)(c3ccc(OC(F)F)cc3)[N+]3=C2CCCC3)cc1", "note": "(centres undefined)", "activation": "inactive: -3.41%"},
      {"smiles": "Nc1c(C(=O)c2ccccc2)oc2ccccc12", "Potency": "inconclusive: 7.94 µM [activator, full curve, poor fit]"},
      {"smiles": "Cc1ccc2cc(C(c3nnnn3C3CCCC3)N(Cc3ccco3)Cc3cccs3)c(=O)[nH]c2c1", "note": "(centres undefined)", "activation": "inactive: -6.69%"},
      {"smiles": "CCOC(=O)C1=C(N)n2c(s/c(=C/c3ccco3)c2=O)=C(C(=O)OC)C1c1ccco1", "note": "(centres undefined)", "activation": "inactive: -5.94%"},
      {"smiles": "CC(C)C1N=C(c2ccc3c(c2)OCO3)CC(c2ccccc2O)N1", "note": "(centres undefined)", "Potency": "inconclusive: 22.4 µM [activator, single point]"},
      {"smiles": "c1ccc(N2CCN(c3ccccc3)C2c2cccs2)cc1", "activation": "inactive: 0.655%"},
      {"smiles": "Cc1cc(C)c(C(=O)CC2(O)C(=O)Nc3ccccc32)cc1C", "note": "(centres undefined)", "activation": "inactive: -3.4%"},
      {"smiles": "COc1ccc(NC(=O)COC(=O)c2c3c(nc4ccccc24)CCCC3)cc1", "activation": "inactive: -8.95%"},
      {"smiles": "CCOc1ccc(NC(=O)c2ccc(Cn3nc(C)cc3C)o2)cc1", "Potency": "inconclusive: 14.1 µM [activator, single point]"},
      {"smiles": "COCn1c(COc2ccccc2)nc2ccccc21", "Potency": "inconclusive: 10 µM [activator, partial curve]"},
      {"smiles": "Cc1ccc(-c2csc(=Nc3ccccc3)n2Cc2ccc3c(c2)OCO3)cc1", "activation": "inactive: 2.83%"},
      {"smiles": "COc1ccc(CCNC(=O)Cn2c(=O)n(-c3cc(F)ccc3F)c(=O)c3sccc32)cc1OC", "activation": "inactive: -2.39%"},
      {"smiles": "Cn1c(=O)c2c(nc(SCC(=O)c3cccs3)n2Cc2ccc(F)cc2)n(C)c1=O", "activation": "inactive: -0.334%"},
      {"smiles": "Nc1nnc(N2CCCCC2)s1", "activation": "inactive: -0.79%"},
      {"smiles": "CSc1ncccc1C(=O)N1CCN(S(=O)(=O)c2ccc(C)cc2)CC1", "activation": "inactive: -3.16%"},
      {"smiles": "Cn1c(/C(C#N)=C(\\O)c2ccc([N+](=O)[O-])s2)nc2ccccc21", "Potency": "inconclusive: 28.2 µM [activator, full curve, poor fit]"},
      {"smiles": "Cc1cccc(NC(=O)c2c(O)c3ccccc3n(C)c2=O)c1", "Potency": "inconclusive: 2.24 µM [activator, full curve, poor fit]"},
      {"smiles": "S=c1[nH]nc(C2CCCCC2)n1/N=C/c1cccs1", "activation": "inactive: -4.74%"},
      {"smiles": "CCOC(=O)c1ccc(N2C(=O)c3n[nH]c(-c4cccs4)c3C2c2ccc(CC)cc2)cc1", "note": "(centres undefined)", "Potency": "inconclusive: 11.2 µM [activator, full curve, poor fit]"},
      {"smiles": "COc1ccc(/C=C/c2ccc3cccc(O)c3n2)c(OC)c1OC", "Potency": "inconclusive: 22.4 µM [activator, single point]"},
      {"smiles": "CCC(CO)N=CC1=C(O)CC(c2ccccc2)CC1=O", "note": "(centres undefined)", "activation": "inactive: 0.0822%"},
      {"smiles": "Cc1ccc(C(=O)CC(c2cccs2)S(=O)(=O)c2ccc(C)cc2)cc1", "note": "(centres undefined)", "Potency": "inconclusive: 50.1 µM [activator, single point]"},
      {"smiles": "C=CCNC(=S)Nc1ccccc1-c1nnc2n1CCCCC2", "activation": "inactive: -3.6%"},
      {"smiles": "S=C(NCCc1ccccc1)N1CCc2ccccc2C1", "Potency": "inconclusive: 10 µM [activator, partial curve, poor fit]"},
      {"smiles": "O=C(Nc1ccc(S(=O)(=O)Nc2cnc3ccccc3n2)cc1)c1ccc(Cl)c([N+](=O)[O-])c1", "Potency": "inconclusive: 50.1 µM [activator, single point]"},
      {"smiles": "COc1ccc(Br)cc1CSC(=N)N", "activation": "inactive: -3.89%"},
      {"smiles": "CCOC(=O)c1c(C(C)(C)C)oc2ccc(O)cc12", "activation": "inactive: -2.46%"},
      {"smiles": "CC1(C(=O)NS(=O)(=O)c2cccc(C#N)c2)CCN1C(=O)Cc1ccc(-c2ccccc2)cc1", "note": "(centres undefined)", "Potency": "inconclusive: 28.2 µM [activator, single point]"},
      {"smiles": "Cc1ccccc1C(=O)Oc1ccccc1C(=O)N1CCOCC1", "Potency": "inconclusive: 28.2 µM [activator, single point]"},
      {"smiles": "Cc1ccccc1N1CCN(Cc2c(C#N)c3ccccc3n2C)CC1", "activation": "inactive: -1.51%"},
      {"smiles": "CC(C)(C)C(O)C(Cc1ccccc1Cl)n1cncn1", "note": "(centres undefined)", "Potency": "inconclusive: 12.6 µM [activator, single point]"},
      {"smiles": "C[C@@H]1CCC(=O)N(CC[C@H](Sc2ccc(Br)cc2)c2ccccc2)CC1", "Potency": "inconclusive: 44.7 µM [activator, single point]"},
      {"smiles": "COc1cc2cnc(C3=CCCCC3)cc2cc1OC", "Potency": "inconclusive: 12.6 µM [activator, single point]"},
      {"smiles": "C[C@H](NC(=O)c1nc[nH]c1C(=O)N[C@@H](Cc1ccccc1)C(=O)OCc1ccccc1)C(=O)OCc1ccccc1", "Potency": "inconclusive: 44.7 µM [activator, partial curve, poor fit]"},
      {"smiles": "CN1c2ccsc2C(O)=C(C(=S)Nc2ccccc2)S1(=O)=O", "Potency": "inconclusive: 44.7 µM [activator, partial curve, poor fit]"},
      {"smiles": "O=C(/C=C/c1ccc2c(c1)OCCCO2)c1ccccc1O", "Potency": "inconclusive: 50.1 µM [activator, partial curve, poor fit]"},
      {"smiles": "O=C(N/N=C/C(Br)=C\\c1ccccc1)c1cccs1", "activation": "inactive: 4.04%"},
      {"smiles": "CCN(CC)S(=O)(=O)c1cccc(-c2nnc(SCCOc3ccccc3)o2)c1", "activation": "inactive: -5.09%"},
      {"smiles": "COc1ccc(/C=C/C(=O)N2CCCc3ccccc32)cc1", "activation": "inactive: 7.64%"},
      {"smiles": "Cc1cc2nc(CS)[nH]c2cc1C", "Potency": "inconclusive: 35.5 µM [activator, partial curve, poor fit]"},
      {"smiles": "O=C(Cc1ccc(Cl)cc1)c1c(O)cc(O)cc1O", "Potency": "inconclusive: 14.1 µM [activator, partial curve, poor fit]"},
      {"smiles": "O=C(Nc1nc2ccc(Cl)cc2s1)C1CC1", "activation": "inactive: 4.62%"},
      {"smiles": "OC(c1cccc(Cl)c1)c1nc(-c2ccccc2)cs1", "note": "(centres undefined)", "activation": "inactive: -0.937%"},
      {"smiles": "Cc1c(C(=O)NCc2ccccc2Cl)sc2nc3n(c(=O)c12)CCCC3", "activation": "inactive: 1.49%"},
      {"smiles": "COc1ccccc1/C=C1\\SC(=O)N(CC(=O)NCCCn2ccnc2)C1=O", "activation": "inactive: -5.91%"},
      {"smiles": "O=C(O)Cn1c(CC(=O)N2CCCC2)nc2ccccc21", "Potency": "inconclusive: 28.2 µM [activator, single point]"},
      {"smiles": "COc1ccccc1C(=O)Nc1ccnn1C1CCN(CCCC2CCCC2)CC1", "activation": "inactive: -1.56%"},
      {"smiles": "C/C(=N\\NC(=O)Cc1ccccc1)c1ccc(Br)s1", "activation": "inactive: 0.708%"},
      {"smiles": "CCCCCNCC(=O)Nc1cc(C(F)(F)F)ccc1OCCOC", "activation": "inactive: -5.29%"},
      {"smiles": "Cc1ccc(/C=N/N2C(=S)SC(C)(C)C2N(O)C(=O)Nc2ccc([N+](=O)[O-])cc2)cc1", "note": "(centres undefined)", "Potency": "inconclusive: 50.1 µM [activator, single point]"},
      {"smiles": "Cc1cccc(Cn2cc(/C=C/[N+](=O)[O-])c3ccccc32)c1", "Potency": "inconclusive: 25.1 µM [activator, single point]"}
    ]}
  ]
}
